About 18,000 (5.8%) of roughly 310,000 compounds were called active. Inconclusive means that the source gave no clear call. Such entries were picked first, then a sample of the others. Calls follow the shape of the dose curve; as a rule, active = well fitted inhibition curve with a large enough effect; inconclusive = small, poorly fitted or top-dose-only effect, or another doubt; inactive = no such curve, though single readings can be large or run the other way. No potency is given beside an inconclusive call; the fits are too rough.
Assay: Primary qHTS for delayed death inhibitors of the malarial parasite plastid, 48 hour incubation
Settings: P. falciparum luciferase growth in erythrocytes; series mostly up to 28.7 µM
Outline: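 Read-out is firefly luciferase luminescence from an integrated reporter in P. falciparum, so falling signal marks reduced parasite growth. Infected erythrocytes were at 2% hematocrit and 0.1% parasitemia (final) in Albumax-supplemented RPMI 1640.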
For Cc1ccccc1C(=O)N1CCN(c2ncnc3c2cnn3-c2ccccc2)CC1, the Potency was inconclusive [inhibitor, partial curve].
In the case of FC(F)(F)c1cccc(NC(=S)Nc2cccc(Cl)c2)c1, the Potency is reported as inconclusive [inhibitor, single point].
For Cc1cnc(NC(=O)CSc2nnc(CNc3ccc(F)cc3)n2CC2CCCO2)s1 (centres undefined), the Potency was inconclusive [inhibitor, partial curve, poor fit].
With CCOC(=O)c1[nH]c2ccc(OCC)cc2c1NC(=O)CN1CCC2(CC1)OCCO2 the Potency was inconclusive [inhibitor, partial curve, poor fit].
With CCCCOC(=O)c1cc(=O)[nH]c2ccc(C)cc12 the Potency was inconclusive [inhibitor, single point].
In the case of CCCNS(=O)(=O)c1ccc(CCC(=O)Nc2ccc3c(c2)OCO3)cc1, the Potency is reported as inconclusive [inhibitor, single point].
In the case of Cc1ccc(N(CC(=O)NCc2ccccc2Cl)S(=O)(=O)c2c(C)noc2C)cc1, the Potency is reported as inconclusive [inhibitor, single point].
In the case of CCCCCCCCCCCC(=O)NC(C(=O)OCC)C(O)c1cccc([N+](=O)[O-])c1 (centres undefined), the Potency is reported as inconclusive [inhibitor, single point].
In the case of CNC(=S)N(Cc1cc2cc(C)cc(C)c2[nH]c1=O)C1CCCC1, the Potency is reported as inconclusive [inhibitor, partial curve, poor fit].
With CC(C)(C)C(=O)c1cnc(Nc2ccccc2Cl)s1 the Potency was “inactive”.
For CCN(CC)CCNc1cc(C)nc2c1C(=O)C(=O)C=C2N1CCCCC1, the Potency was inconclusive [inhibitor, single point].
For CCC(=O)N1CCC2(CC1)Oc1ccc(Cl)cc1C(=O)C21CC(c2ccccc2)=NO1 (centres undefined), the Potency was inconclusive [inhibitor, single point].
In the case of Nc1c(C(=O)NC23CC4CC(CC(C4)C2)C3)sc2nc3c(c(C(F)(F)F)c12)CCC3, the Potency is reported as inconclusive [inhibitor, partial curve, poor fit].
For CCc1ccc(/C=C2/SC(N3CCOCC3)=NC2=O)cc1, the Potency was inconclusive [inhibitor, partial curve].
With OC1C[N+]2(CCCCC2)C1 the Potency was inconclusive [inhibitor, partial curve, poor fit].
For OCCN1CCN(c2cc(-c3ccccc3)c3ccccc3n2)CC1, the Potency was inconclusive [inhibitor, partial curve].
With COC(=O)c1cc(NC(=O)/C=C/c2ccccc2)ccc1O the Potency was “inactive”.
In the case of O=C1CCSc2ccc(Cl)cc2N1Cc1ccc(Cl)cc1, the Potency is reported as inconclusive [inhibitor, partial curve, poor fit].
With Cc1cc(C(=O)CSc2nc3ccccc3[nH]2)c(C)n1Cc1ccco1 the Potency was “inactive”.
For COc1ccc(CN(C)C(=O)c2cc(-c3ccccc3)nc3ccc(C)cc23)c(OC)c1OC, the Potency was active: 8.28 µM.
In the case of CN1C[C@@H]2C(c3ccc(C(F)(F)F)cc3)C3(c4cccnc4)CC2(C3)[C@H]1c1ccccc1 (some centres undefined), the Potency is reported as active: 2.33 µM.
For COc1ccc(CNC(=O)CN(C)S(=O)(=O)c2ccc3c(c2)OCCO3)cc1OC, the Potency was inconclusive [inhibitor, partial curve, poor fit].
In the case of O=C(NNS(=O)(=O)c1ccccc1[N+](=O)[O-])c1cccnc1, the Potency is reported as “inactive”.
For Cc1[nH]c2ccccc2c1CCNC(=O)c1c(N)no[n+]1[O-], the Potency was “inactive”.
With Cc1ccc(C)c2nc(Cl)c(C3NC(=O)c4ccccc4N3)cc12 (centres undefined) the Potency was inconclusive [inhibitor, single point].
In the case of CC(=O)Nc1ccc(NC(=O)C2CC(=O)N(c3ccccc3Cl)C2)cc1 (centres undefined), the Potency is reported as inconclusive [inhibitor, partial curve].
For O=C(O)c1ccc(N(c2ccccc2)c2ccccc2)cc1, the Potency was “inactive”.
For N#Cc1c(-c2ccco2)cc(-c2ccc(F)cc2)nc1N, the Potency was “inactive”.
With CN1C(=O)NC(=O)/C(=C/c2ccc([N+](=O)[O-])o2)C1=O the Potency was “inactive”.
For CCOC(=O)C1=NNC(C(=O)c2ccc(Cl)cc2)C1c1ccc(OC)cc1 (centres undefined), the Potency was inconclusive [inhibitor, partial curve, poor fit].
In the case of O=C1OCCC1Sc1nnc(-c2ccc(F)cc2)n1Cc1ccccc1 (centres undefined), the Potency is reported as “inactive”.
With COC(=O)c1ccc(CS(=O)(=O)c2ccc(C)cc2)o1 the Potency was “inactive”.
With COc1ccc(S(=O)(=O)N2CCN(CC(=O)N3CCc4ccccc4C3)CC2)cc1OC the Potency was inconclusive [inhibitor, single point].
For Cc1cc(Br)c(OCc2ccc(C(=O)N/N=C3\CC4CC=CC34)cc2)c(Br)c1 (centres undefined), the Potency was active: 10.4 µM.
With CCOC(=O)C1=C(C)NC(=O)NC1c1c(C)nn(-c2ccccc2)c1Cl (centres undefined) the Potency was inconclusive [inhibitor, partial curve].
With CCCCC1(CCCC)C(=O)NC(=Nc2cccc(C)c2)NC1=O the Potency was inconclusive [inhibitor, full curve, poor fit].
In the case of Brc1ccc2ncnc(Nc3ccc(N4CCOCC4)cc3)c2c1, the Potency is reported as inconclusive [inhibitor, single point].
With Cc1ccc(C2(C)NC(=O)N(CC(=O)NCc3cccc(Cl)c3)C2=O)cc1 (centres undefined) the Potency was inconclusive [inhibitor, partial curve, poor fit].
In the case of Cc1ccccc1Nc1nnc(C)c(=O)[nH]1, the Potency is reported as “inactive”.
For COc1ccc(-c2nnc3sc(CCN4C(=O)c5ccccc5C4=O)nn23)cc1, the Potency was active: 5.22 µM.
With COc1ccc2cc3cc(C(=O)NCCN4CCN(Cc5ccccc5)CC4)oc3nc2c1 the Potency was inconclusive [inhibitor, partial curve, poor fit].
With COc1ccc(C(CC(=O)c2ccc(O)cc2)S(=O)(=O)c2ccc(C)cc2)cc1 (centres undefined) the Potency was “inactive”.
For COCCNc1nc2c(c(=O)n(Cc3cccc(Cl)c3)c(=O)n2C)n1C, the Potency was inconclusive [inhibitor, partial curve, poor fit].
For COC(=O)c1c(NC(=O)c2ccc(OC(C)C)cc2)sc2c1CC(C)(C)NC2(C)C, the Potency was inconclusive [inhibitor, single point].

From PubChem BioAssay AID504832 (National Center for Advancing Translational Sciences (NCATS), 2011)
Potency is read from the fitted curve at half-maximal effect; tags tell the direction and shape of the fitted curve.
